Assay [1] deals with DsRed-LEF11 (2–41) (Bombyx mori nucleopolyhedrovirus (BmNPV)) (UniProt O92404). Put plainly: non-reducing SDS-PAGE with western blot; lysates of BmN-SWU1 cells transfected with pIZ-DsRed-LEF11 truncation or point mutant plasmids; loading buffer without β-mercaptoethanol; anti-DsRed blot. For orientation: In western blotting, separated proteins are transferred to a membrane and probed.

The target of assay [2] is DsRed-LEF11 (72–91) (Bombyx mori nucleopolyhedrovirus (BmNPV)) (UniProt O92404). The assay is described as above.
The target of assay [3] is DsRed-LEF11 (82–112) (Bombyx mori nucleopolyhedrovirus (BmNPV)) (UniProt O92404). Described as above.
For assay [4], the target named is DsRed-LEF11 (92–112) (Bombyx mori nucleopolyhedrovirus (BmNPV)) (UniProt O92404). The description is as above.
In assay [5] the target is T1, BmNPV late expression factor 11 (LEF-11), cMYC- or FLAG-tagged (Bombyx mori nucleopolyhedrovirus (BmNPV)), O92404.
T1 chain: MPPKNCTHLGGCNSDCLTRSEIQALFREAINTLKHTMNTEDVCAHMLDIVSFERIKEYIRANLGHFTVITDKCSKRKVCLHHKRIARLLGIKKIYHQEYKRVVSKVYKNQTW
Put plainly: non-reducing SDS-PAGE with western blot; lysate of BmN-SWU1 cells transfected with pIZ-LEF11^cMYC, 72 h.p.t.; loading buffer without β-mercaptoethanol; 12% SDS-PAGE; anti-cMYC blot. The conditions noted are these: remark: other sources report otherwise.

For assay [6], the target named is T1, BmNPV late expression factor 11 …. As to the kind of experiment: co-IP; BmN-SWU1 cells co-transfected with LEF11-FLAG and LEF11-cMYC, lysed at 72 h.p.t.; IP with anti-FLAG (mouse IgG as control), protein A+G agarose, 4°C; blot with anti-cMYC. The conditions noted are these: remark: other sources report otherwise.
Assay [7] concerns the target BmNPV late expression factor 11 (LEF-11), cMYC- or FLAG-tagged (Bombyx mori nucleopolyhedrovirus (BmNPV)) (UniProt O92404). Put plainly: reducing SDS-PAGE with western blot; same lysate of BmN-SWU1 cells transfected with pIZ-LEF11^cMYC; loading buffer with β-mercaptoethanol; anti-cMYC blot.

These are yes or no findings as the source states them, for the method shown. For some of these results: In cells and extracts the contact can be indirect. Some entries that bind do so weakly or less than the wild type. For some of these results: Tags and fused reporters may be left off the sequences shown.

Consider “DsRed-LEF11 (2–41) (from UniProt O92404 2-41) (domain or fragment)”, for which the binding entry in assay [1] is given as “no binding”. Consider “DsRed-LEF11 (72–91) (from UniProt O92404 72-91) (domain or fragment)”, for which, in assay [2], the binding result was “no binding”. On to “DsRed-LEF11 (82–112) (from UniProt O92404 82-112) (domain or fragment)”, for which, in assay [3], the binding result is given as “no binding”. Consider “DsRed-LEF11 (92–112) (from UniProt O92404 92-112) (domain or fragment)”, for which the binding result in assay [4] is “no binding”.

B1: BmNPV late expression factor 11 (LEF-11), cMYC- or FLAG-tagged, O92404 1-112 (natural protein)
chain: T1 chain
As to B1, the binding entry in assay [5] and in assay [6] was “binds” in each case.

B2: BmNPV late expression factor 11 (LEF-11), cMYC- or FLAG-tagged (protein, UniProt O92404 1-112)
chain: T1 chain
With B2, the binding entry in assay [7] is listed as “no binding (condition: with β-mercaptoethanol)”.
